These results are taken from PubChem BioAssay AID1346428 (National Center for Advancing Translational Sciences (NCATS), 2018).

The campaign covered roughly 48,000 compounds. About 1,200 (2.5%) were called active. Another 2% or so got no clear call; they are omitted.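 How the source made its calls: active means activation of at least 60% and not above a set upper limit (about 1 call in 100 departs from these limits); inconclusive means activation of 40% to 60%, or above that upper limit; inactive means activation under 40%.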 The list shows a part of the results.

The target of this experiment is Probable G-protein coupled receptor 32 (Homo sapiens) (UniProt O75388). As to the kind of experiment: qHTS for Agonists of Human Resolvin D1 Receptor DRV1. The following applies: CHO-K1 GPR32 beta-arrestin PathHunter luminescence, 90 min; at 76.9 µM; active compounds read high; zero percent set by DMSO-only wells. The method, boiled down: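 Beta-arrestin recruitment read-out: luminescence from complemented beta-Gal in CHO-K1 GPR32 PathHunter cells, measured 1 h after detection reagent at ambient temperature following 90 min compound exposure at 37 °C; DMSO served as basal (EC0) control.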
Chain of UniProt O75388 (O75388 whole entry, looked up): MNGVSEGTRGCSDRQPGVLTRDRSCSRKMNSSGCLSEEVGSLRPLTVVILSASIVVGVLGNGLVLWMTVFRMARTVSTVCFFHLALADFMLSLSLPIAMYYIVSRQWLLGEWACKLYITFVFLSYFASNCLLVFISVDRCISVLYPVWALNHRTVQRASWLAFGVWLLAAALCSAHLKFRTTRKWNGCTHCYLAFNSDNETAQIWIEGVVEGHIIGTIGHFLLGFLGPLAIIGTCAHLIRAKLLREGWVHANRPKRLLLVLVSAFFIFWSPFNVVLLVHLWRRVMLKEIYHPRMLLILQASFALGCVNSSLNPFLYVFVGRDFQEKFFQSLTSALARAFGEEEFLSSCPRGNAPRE
On the technique in general: qHTS replaces the single test concentration by a dilution series.
Turning to `CO[C@@]1(NC(=O)CSC[C@@H](N)C(=O)O)C(=O)N2C(C(=O)O)=C(CSc3nnnn3C)CS[C@@H]21`, the activation was inactive: 12.9%.

As to `COc1cc(CCC(=O)NCc2ccc3c(c2)CCN3C(=O)c2ccc(F)cc2)cc(OC)c1OC`, the activation is inactive: -12.3%.

With `CCOC(=O)c1c(SCC(=O)Nc2cc(Cl)cc(Cl)c2)nc(=O)[nH]c1C`, the activation is inactive: -5.41%.

Turning to `COc1ccc2ncc3c(-c4ccc(C)c(C)c4)nn(CC(=O)NC4CCCC4)c3c2c1`, the activation was inactive: -14.4%.

On to `COc1ccc(-c2nc3c(c(SCC(=O)N(C)c4ccccc4)n2)Cc2cc(C)ccc2O3)cc1`, for which the activation is inactive: -8.27%.

Take `CCCCNC(=O)C1CCC(CNS(=O)(=O)c2ccc(NC(C)=O)cc2)CC1` (centres undefined): the activation is inactive: -2.59%.

In the case of `CCN(CC)c1ccc(NC(=O)Cn2nc(C)n3cccc3c2=O)c(C)c1`, the activation is inactive: -17.5%.

With `Cc1cccc(-n2ncc3c(N4CCN(c5ccccc5)CC4)ncnc32)c1`, the activation was inactive: 8.36%.

Consider `Cc1ccc2nc(NCc3ccc(F)cc3)c3nncn3c2c1`, for which the activation was inactive: -18.4%.

As for `CCc1ccccc1NC(=O)CCc1c(C)nn(-c2ccc(N3CCOCC3)nn2)c1C`, the activation is inactive: 0.748%.

Regarding `CCc1nn2c(=O)cc(COC(=O)c3ccccc3NC(=O)C3CCCCC3)nc2s1`, the activation was inactive: -14.9%.

`CC(=O)Nc1ncc([N+](=O)[O-])s1`: the activation was inactive: -60.8%.

On to `CCc1ccc(CNCc2c(C(=O)O)n(Cc3ccc(F)cc3Cl)c3cc(OC)ccc23)cc1`, for which the activation was inactive: 8.47%.

In the case of `COc1cc2ccccc2cc1C(=O)N1CCN(c2nc3ccc(F)cc3s2)CC1`, the activation is inactive: -4.95%.

`O=C(c1ccc(F)cc1)n1nc(-c2ccccc2)nc1NCc1ccc(F)cc1`: the activation was inactive: -8.81%.

As for `COc1ccc(NC(=O)CCc2nnc3n(CC(C)C)c(=O)c4ccccc4n23)cc1`, the activation is inactive: 1.6%.

For `COc1ccccc1CCNS(=O)(=O)c1ccc(N2CCCCS2(=O)=O)cc1`, the activation is inactive: 8.74%.

Regarding `CC12CCC(CC1)C(C)(C)O2`, the activation was inactive: -1%.

With `COc1ccc(CNC(=O)c2ccc(CS(=O)Cc3ccccc3Cl)o2)cc1` (centres undefined), the activation is inactive: -6.3%.

Turning to `Cc1ccc(C2c3[nH]c4ccccc4c3CCN2C(=O)CCC2CCCC2)cc1` (centres undefined), the activation is inactive: -36.8%.

In the case of `Cc1nc2ccn(Cc3ccco3)c(=O)c2cc1C(=O)N1CCN(c2ccccc2)CC1`, the activation is inactive: -13.8%.

For `CCc1ccccc1NC(=O)C1CCCN(c2ncnc3onc(C)c23)C1` (centres undefined), the activation was inactive: 18.2%.

Consider `Cc1ccc(NC(=O)Cn2ccn(-c3ccc(F)c(F)c3)c(=O)c2=O)cc1C`, for which the activation was inactive: -2.41%.

`O=C(c1ccc(CSc2nc3ccncc3n2Cc2ccccc2)cc1)N1CCCCCC1`: the activation was inactive: 21.7%.

Turning to `Cc1ccc(Cl)cc1-n1ncc2c(Nc3cccc(C)c3C)ncnc21`, the activation was inactive: 23.1%.

For `Cc1ccc(-n2nc(C(=O)N3CCN(c4cc(Cl)ccc4C)CC3)c3c4ccccc4n(C)c3c2=O)cc1`, the activation was inactive: 8.75%.

As to `C=Cc1ccc(CSc2nc(-c3ccc(C)cc3)nc3c2Cc2c(CO)cnc(C)c2O3)cc1`, the activation is inactive: 40.3%.

For `CC(C)c1ccc(OCC(=O)N(Cc2ccc(N(C)C)cc2)C2CCS(=O)(=O)C2)cc1` (centres undefined), the activation was inactive: -29.2%.

Turning to `Cc1cccc(NC(=O)C(NS(=O)(=O)c2ccc3c(c2)oc(=O)n3C)C(C)C)c1` (centres undefined), the activation was inactive: -7.35%.

Consider `O=c1c(S(=O)(=O)c2cccc(Cl)c2)cn(Cc2ccccc2)c2cc(N3CCOCC3)c(F)cc12`, for which the activation was inactive: -4.35%.

On to `O=C(Nc1cccc(C(=O)OCc2cc(=O)n3c4c(sc3n2)CCCC4)c1)c1ccccc1`, for which the activation was inactive: -22.6%.

On to `Cc1ccc2nc(-c3cccnc3)c(Nc3ccccc3C)n2c1`, for which the activation is inactive: -4.35%.

As to `CCCNC(=O)CCSc1nc(-c2ccc3c(c2)OCO3)cc(C(F)(F)F)n1`, the activation is inactive: 26.4%.

With `Cc1cc(C)c2nc(N(Cc3cccnc3)C(=O)CCOc3ccccc3)sc2c1`, the activation is inactive: 6.25%.

On to `CCc1ccc(NC(=O)Cn2c(=O)n(Cc3ccco3)c(=O)c3cccnc32)cc1`, for which the activation is inactive: 14.6%.

Consider `CCOc1ccc(S(=O)(=O)Nc2nc3ccccc3nc2Nc2ccc(OC)cc2)cc1`, for which the activation was inactive: -1.05%.

With `Cn1c(=O)n(CCCc2ccccc2)c(=O)c2c1nc1n2CCN1c1ccc(F)cc1`, the activation was inactive: -11%.

Turning to `CCOC(=O)c1cc2c(=O)n3ccccc3nc2n(Cc2ccco2)c1=NC(=O)c1ccc(OCC)cc1`, the activation was inactive: -41.3%.

Consider `CCOCC(O)COc1ccc(NC(=O)CC[S+](C)C)cc1` (centres undefined), for which the activation is inactive: -4.28%.

As for `O=C(c1cc(-c2ccc(O)cc2)on1)N1CCN(c2ccccc2)CC1`, the activation was inactive: 27.9%.

With `CCN(c1cccc(C)c1)c1ncnc2c1cnn2-c1cccc(Cl)c1`, the activation was inactive: -0.397%.

On to `CCn1c(=O)cc(OCC(=O)N2CCN(c3ccc(F)cc3)CC2)c2ccccc21`, for which the activation was inactive: 29.1%.

Take `CCCCOC(=O)c1ccc(NC(=O)c2cnc3ccc(C)cn3c2=O)cc1`: the activation is inactive: 13.2%.

For the molecule `COc1cc(OC)c(N(C)C(=O)c2sc3nc4n(c(=O)c3c2C)CCCC4)cc1Cl`, the activation was inactive: 6.38%.

In the case of `Cc1nn(C(=O)c2ccc(Br)cc2)c(C)c1Sc1ccccc1`, the activation is inactive: 5.29%.

Regarding `COc1ccc(CN2COc3ccc4c(-c5ccccc5)cc(=O)oc4c3C2)cc1OC`, the activation is inactive: -13.5%.

For the molecule `CCN1/C(=C/C=C/c2sc3ccccc3[n+]2CC)Sc2ccccc21`, the activation was inactive: -40.4%.

For `Cc1ccc(NC(=O)Cn2c(=O)n(Cc3nc(-c4ccccc4)no3)c(=O)c3cc4c(cc32)OCO4)c(C)c1`, the activation is inactive: -16%.

Take `O=C(NCc1ccccc1)c1cnc(N2CCCCC2)c2ccccc12`: the activation is inactive: -13.3%.

In the case of `COc1ccc(Cl)cc1NC(=O)CSC1=Nc2ccccc2C2=NC(CC(=O)NCc3cccs3)C(=O)N12` (centres undefined), the activation was inactive: -3.16%.

For `COc1ccc(CCNC(=O)CSc2n[nH]c(-c3ccccc3Cl)n2)cc1OC`, the activation was inactive: -9.72%.

On to `CCc1ccc(-n2c(=O)c3cccnc3n2CC(=O)NCc2ccc(C)cc2)cc1`, for which the activation was inactive: -27.5%.

Take `Cc1ccc(NC(=O)C2=CC(c3ccc4c(c3)OCO4)=NS(=O)(=O)N2C)cc1`: the activation was inactive: -1.81%.

Take `COc1cccc(Nc2nc3ccc(C)cc3nc2-n2nc(C)cc2C)c1`: the activation was inactive: -4.52%.

On to `COc1ccc(Nc2c(-c3ccccn3)nc3ccc(Cl)cn23)cc1`, for which the activation is inactive: -33.8%.

`COc1ccc(Cn2c(=O)[nH]c3cc(C(=O)N4CCN(c5cc(Cl)ccc5C)CC4)ccc3c2=O)cc1`: the activation is inactive: -18.7%.

Turning to `COc1ccccc1-c1noc(-c2ccc(NC(C)C)c([N+](=O)[O-])c2)n1`, the activation was inactive: -14.2%.

Regarding `COc1ccc(-c2nn(-c3cccc(F)c3)c3c2cnc2cc(OC)c(OC)cc23)cc1`, the activation was inactive: 0.86%.

In the case of `O=C(CCCCn1c(=O)c2ccccc2n(CC(=O)Nc2cccc(F)c2)c1=O)NCCc1ccccc1`, the activation was inactive: 22.3%.

For `COc1ccc2[nH]cc(S(=O)(=O)c3ccc(C)c(C)c3)c(=O)c2c1`, the activation was inactive: -4.04%.

As to `CCc1ccc(NC(=O)Cn2cc(S(=O)(=O)N3CCCC3)c(S(=O)(=O)N3CCCC3)c2)cc1`, the activation was inactive: -19.6%.

For `Cc1ccc(NC(=O)Cn2nnc(C(=O)NCc3ccc4c(c3)OCO4)c2N)cc1Cl`, the activation was inactive: 2.48%.

`COc1ccc2oc(=O)c(-c3nc(-c4cccs4)no3)cc2c1`: the activation was inactive: -5.79%.

Turning to `CC(C)NC(=O)CCN1C(=O)c2ccccc2Sc2ncccc21`, the activation is inactive: -6.67%.

Take `O=C(NC1CC(=O)N(c2ccc(F)cc2)C1)C1CC1` (centres undefined): the activation is inactive: 8.75%.

Turning to `CSc1nc2sc3c(c2c(=O)n1-c1ccccc1)CCC(C(C)(C)C)C3` (centres undefined), the activation is inactive: 18.7%.

As for `Cc1cc(C)cc(NC(=O)CCCc2nc(-c3ccccc3Cl)no2)c1`, the activation was inactive: -1.76%.

`CC(=O)c1ccc(OCC(=O)N2CCCCC2)cc1`: the activation was inactive: -16.2%.

Take `Cc1cc(C(=O)Nc2c(C)nc3ccccn3c2=O)ccc1[N+](=O)[O-]`: the activation was inactive: -10.3%.

On to `O=C(CSc1nc2c([nH]c3ccccc32)c(=O)n1-c1ccc(Cl)cc1)NCC1CCCO1` (centres undefined), for which the activation was inactive: -21.5%.

Consider `CCOc1ccc(/C=C/c2nc(C#N)c(NCCc3ccccc3)o2)cc1`, for which the activation is inactive: -17.6%.

As for `Cc1ccccc1Nc1c(-c2cccs2)nc2cccc(C)n12`, the activation is inactive: 12.5%.

Regarding `CC1Cc2cc(S(=O)(=O)N(Cc3ccccc3)C(C)C)ccc2N1C(=O)C1CCC1` (centres undefined), the activation was inactive: -7.59%.

For the molecule `COc1ccccc1NC(=O)Cn1c(=O)n(CCCCCC(=O)NCc2ccccc2)c(=O)c2sccc21`, the activation is inactive: 18.5%.

As to `COC(=O)C(c1ccccc1Cl)N1CCc2sccc2C1` (centres undefined), the activation was inactive: -19.2%.

On to `CCOC(=O)c1c(C)oc2nc(C)nc(NCc3ccccc3OC)c12`, for which the activation was inactive: -10.3%.

For `CC(=O)Nc1ccc(S(=O)(=O)NC2(C(F)(F)F)NC(=O)N(CCc3ccc(F)cc3)C2=O)cc1` (centres undefined), the activation was inactive: -8.28%.

For the molecule `COc1cccc(C(=O)Nc2ccccc2-c2nnc(-c3cccc(OC)c3)o2)c1`, the activation was inactive: -0.29%.

With `O=C(Cn1c(=O)oc2cc(S(=O)(=O)NCc3ccccc3)ccc21)NCc1ccc(Cl)cc1`, the activation was inactive: 18.7%.

In the case of `CCOc1cc(CNC(=O)Cn2c(-c3cccs3)cc3cc(F)ccc32)ccc1OC`, the activation is inactive: -7.77%.

In the case of `Cc1ccc(-n2c(SCC(N)=O)nc3c(oc4ccccc43)c2=O)cc1C`, the activation was inactive: -6.72%.

`COC(=O)C1=C(c2ccccc2)c2ccccc2S(=O)(=O)N1CC(=O)Nc1ccccc1Cl`: the activation is inactive: -3.44%.

Turning to `Cc1ccc(C)c(N2CCN(Cc3csc(C)c3)CC2)c1`, the activation was inactive: -23.8%.

Take `Cc1ccc(C)c(NC(=O)Cn2c(=O)n(Cc3ccccc3)c(=O)c3oc4ccccc4c32)c1`: the activation was inactive: -9.7%.
